Assay results: the supplement of paper PMC10037445
Whole data set: some 2,900 compounds, median “IRF Lucia reporter activity, fold change vs agonist alone” near 0.9, cut for the highest 2% near 2.8. The list shows a part of the results.

Key:
RAW-Dual [1] = assay: IRF Lucia reporter activity, fold change vs agonist alone; higher = enhanced IRF activity; conditions: library stock concentration (final ~1000-fold dilution): 10 mM, agonist: MPLA (TLR4) […]
Outline: (§1)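 Reporter activity is given as fold change relative to agonist-alone wells. To measure it, 50 nL of library stock was pin-tooled onto RAW-Dual macrophages (50,000 cells/well, DMEM, 384-well plates), a PRR agonist followed 1 h later, and cells stayed at 37 °C, 5% CO2. Twenty hours on, supernatant was assayed for IRF (QuantiLuc luminescence) and NF-κB (QuantiBlue, 620 nm absorbance), and wells under 70% of agonist-control IncuCyte confluency in both mask sets were marked cytotoxic.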

RAW-Dual [2] = assay: IRF Lucia reporter activity, fold change vs agonist alone; cytotoxicity flag (confluency mask): not cytotoxic; higher = enhanced IRF activity
Outline: as §1

RAW-Dual [3] = assay: IRF Lucia reporter activity, fold change vs agonist alone; cytotoxicity flag (confluency mask): cytotoxic (confluency <70% of control); higher = enhanced IRF activity
Outline: as §1

[4] = cytotoxicity flag (confluency mask): not cytotoxic
[5] = agonist: 3'3'-cGAMP (STING) 10 ug/mL
[6] = cytotoxicity flag (confluency mask): cytotoxic (confluency <70% of control)

Compound: O=C1C(=Cc2cccnc2)C(=O)c2ccccc21
- IRF Lucia reporter activity (RAW-Dual [1]; [4]): 0.967

Compound: O=C1C(=Cc2cccnc2)C(=O)c2ccccc21 (library stock concentration (final ~1000-fold dilution): 10 mM)
- IRF Lucia reporter activity (RAW-Dual [2]; [5]): 0.916
- IRF Lucia reporter activity (RAW-Dual [2]; agonist: LPS (TLR4) 0.1 ug/mL): 1.17

Compound: O=C(CCCCCN1C(=O)c2cccc3cccc(c23)C1=O)NO (library stock concentration (final ~1000-fold dilution): 10 mM)
- IRF Lucia reporter activity (RAW-Dual [3]; [5]): 0.0259
- IRF Lucia reporter activity (RAW-Dual [3]; agonist: LPS (TLR4) 0.1 ug/mL): 0.637

Compound: N#Cc1ccnc(N2C(=O)CCC2C(=O)N(c2cncc(F)c2)C(C(=O)NC2CC(F)(F)C2)c2ccccc2Cl)c1 (centres undefined) (library stock concentration (final ~1000-fold dilution): 10 mM)
- IRF Lucia reporter activity (RAW-Dual [2]; [5]): 1.42
- IRF Lucia reporter activity (RAW-Dual [2]; agonist: LPS (TLR4) 0.1 ug/mL): 1.11

Compound: NC(=O)c1cc(F)cc2c1C(=O)N(C1CCN(C3CCC(F)(F)CC3)CC1)C2 (library stock concentration (final ~1000-fold dilution): 10 mM)
- IRF Lucia reporter activity (RAW-Dual [2]; [5]): 0.94
- IRF Lucia reporter activity (RAW-Dual [2]; agonist: LPS (TLR4) 0.1 ug/mL): 0.923

Compound: O=C(/C=C/c1ccc(O)c(O)c1)O[C@@H]1CC(O)(C(=O)O)C[C@@H](OC(=O)/C=C/c2ccc(O)c(O)c2)C1O (some centres undefined) (library stock concentration (final ~1000-fold dilution): 10 mM)
- IRF Lucia reporter activity (RAW-Dual [2]; [5]): 0.873
- IRF Lucia reporter activity (RAW-Dual [2]; agonist: LPS (TLR4) 0.1 ug/mL): 0.963

Compound: COc1ccc2c(c1)c(C1=C(c3c[nH]c4ccccc34)C(=O)NC1=O)cn2CCCN(C)C (library stock concentration (final ~1000-fold dilution): 10 mM)
- IRF Lucia reporter activity (RAW-Dual [3]; [5]): 0.0845
- IRF Lucia reporter activity (RAW-Dual [3]; agonist: LPS (TLR4) 0.1 ug/mL): 0.34

Compound: COc1ccc2c(c1)c(C1=C(c3c[nH]c4ccccc34)C(=O)NC1=O)cn2CCCN(C)C
- IRF Lucia reporter activity (RAW-Dual [1]; [6]): 0.403

Compound: Nc1c2c(nc3ccccc13)CCCC2 (library stock concentration (final ~1000-fold dilution): 10 mM)
- IRF Lucia reporter activity (RAW-Dual [2]; [5]): 0.531
- IRF Lucia reporter activity (RAW-Dual [2]; agonist: LPS (TLR4) 0.1 ug/mL): 0.976

Compound: Nc1c2c(nc3ccccc13)CCCC2
- IRF Lucia reporter activity (RAW-Dual [1]; [4]): 0.977

Compound: CC(C)=CCC[C@](C)(O[C@@H]1O[C@H](CO)[C@@H](O)[C@H](O)[C@H]1O)[C@H]1CC[C@]2(C)[C@@H]1[C@H](O)C[C@@H]1[C@@]3(C)CC[C@H](O)C(C)(C)[C@@H]3[C@@H](O[C@@H]3O[C@H](CO)[C@@H](O)[C@H](O)[C@H]3O)C[C@]12C (library stock concentration (final ~1000-fold dilution): 10 mM)
- IRF Lucia reporter activity (RAW-Dual [2]; [5]): 1
- IRF Lucia reporter activity (RAW-Dual [2]; agonist: LPS (TLR4) 0.1 ug/mL): 1.19

Compound: O=C(CCc1ccc(O)cc1)c1c(O)cccc1OC1OC(CO)C(O)C(O)C1O (centres undefined)
- IRF Lucia reporter activity (RAW-Dual [1]; [4]): 1.01

Compound: O=C(CCc1ccc(O)cc1)c1c(O)cccc1OC1OC(CO)C(O)C(O)C1O (centres undefined) (library stock concentration (final ~1000-fold dilution): 10 mM)
- IRF Lucia reporter activity (RAW-Dual [2]; [5]): 0.943
- IRF Lucia reporter activity (RAW-Dual [2]; agonist: LPS (TLR4) 0.1 ug/mL): 0.918

Compound: O=c1sn(-c2cccc3ccccc23)c(=O)n1Cc1ccccc1 (library stock concentration (final ~1000-fold dilution): 10 mM)
- IRF Lucia reporter activity (RAW-Dual [3]; [5]): 0.628
- IRF Lucia reporter activity (RAW-Dual [3]; agonist: LPS (TLR4) 0.1 ug/mL): 0.552

Compound: O=c1sn(-c2cccc3ccccc23)c(=O)n1Cc1ccccc1
- IRF Lucia reporter activity (RAW-Dual [1]; [6]): 0.76

Compound: COc1ccc(S(=O)(=O)Nc2cccnc2Nc2ccc(O)cc2)cc1 (library stock concentration (final ~1000-fold dilution): 10 mM)
- IRF Lucia reporter activity (RAW-Dual [2]; [5]): 0.0892
- IRF Lucia reporter activity (RAW-Dual [2]; agonist: LPS (TLR4) 0.1 ug/mL): 1.68

Compound: COc1ccc(S(=O)(=O)Nc2cccnc2Nc2ccc(O)cc2)cc1
- IRF Lucia reporter activity (RAW-Dual [1]; [4]): 1.36

Compound: O=C1NCCc2[nH]c(-c3ccncc3)cc21
- IRF Lucia reporter activity (RAW-Dual [1]; [6]): 0.0311

Compound: O=C1NCCc2[nH]c(-c3ccncc3)cc21 (library stock concentration (final ~1000-fold dilution): 10 mM)
- IRF Lucia reporter activity (RAW-Dual [3]; [5]): 0.0453
- IRF Lucia reporter activity (RAW-Dual [3]; agonist: LPS (TLR4) 0.1 ug/mL): 0.0198

Compound: COc1ccccc1N1CCN(CCCNc2cc(=O)n(C)c(=O)n2C)CC1.Cl
- IRF Lucia reporter activity (RAW-Dual [1]; [4]): 0.952

Compound: COc1ccccc1N1CCN(CCCNc2cc(=O)n(C)c(=O)n2C)CC1.Cl (library stock concentration (final ~1000-fold dilution): 10 mM)
- IRF Lucia reporter activity (RAW-Dual [2]; [5]): 1.09
- IRF Lucia reporter activity (RAW-Dual [2]; agonist: LPS (TLR4) 0.1 ug/mL): 0.867

Compound: O=C(/C=C/c1ccc(O)c(O)c1)c1ccc(O)cc1O (library stock concentration (final ~1000-fold dilution): 10 mM)
- IRF Lucia reporter activity (RAW-Dual [2]; [5]): 0.0216
- IRF Lucia reporter activity (RAW-Dual [2]; agonist: LPS (TLR4) 0.1 ug/mL): 0.117

Compound: O=C(CCCCCCC(=O)Nc1ccccc1)NO (library stock concentration (final ~1000-fold dilution): 10 mM)
- IRF Lucia reporter activity (RAW-Dual [3]; [5]): 0.0902
- IRF Lucia reporter activity (RAW-Dual [3]; agonist: LPS (TLR4) 0.1 ug/mL): 0.52

Compound: O=C(CCCCCCC(=O)Nc1ccccc1)NO
- IRF Lucia reporter activity (RAW-Dual [1]; [6]): 0.364

Compound: CCC1OC(=O)C(C)C(OC2CC(C)(OC)C(O)C(C)O2)C(C)C(OC2OC(C)CC(N(C)C)C2O)C(C)(O)CC(C)CN(C)C(C)C(O)C1(C)O.O.O (centres undefined)
- IRF Lucia reporter activity (RAW-Dual [1]; [4]): 1.19

Compound: CCC1OC(=O)C(C)C(OC2CC(C)(OC)C(O)C(C)O2)C(C)C(OC2OC(C)CC(N(C)C)C2O)C(C)(O)CC(C)CN(C)C(C)C(O)C1(C)O.O.O (centres undefined) (library stock concentration (final ~1000-fold dilution): 10 mM)
- IRF Lucia reporter activity (RAW-Dual [2]; [5]): 0.207
- IRF Lucia reporter activity (RAW-Dual [2]; agonist: LPS (TLR4) 0.1 ug/mL): 1.31

Compound: CN1C(=O)NC(Cc2c[nH]c3c(Cl)cccc23)C1=O (centres undefined) (library stock concentration (final ~1000-fold dilution): 10 mM)
- IRF Lucia reporter activity (RAW-Dual [2]; [5]): 0.896
- IRF Lucia reporter activity (RAW-Dual [2]; agonist: LPS (TLR4) 0.1 ug/mL): 0.697
